Source: publication PMC10668032
This is one part of the list. At the low end of the ranking the order means little.

molecular target: SIX1 homeodomain (reference allele) (UniProt Q15475); experiment: universal protein binding microarray; settings: Universal all-10-mer PBM (8x60K, AMADID 030236), 300 nM GST-tagged protein, Alexa Fluor 488 anti-GST; buffer, salt, pH and temperature not stated; high values mean tight binding; most listed sequences are background and not binding sites; double strand, one strand shown

Sequence	binding signal [E-score]
GCACGATA	0.325
AAGGGGTA	0.245
ACACCTTA	0.238
ATCAAGTA	0.234
AACCCGGT	0.137
AGAAACTG	-0.149
AACATGGA	-0.112
AATTGTAC	-0.101
AAGTCAGA	-0.169
CTTTAGAC	-0.0432
ACTAGTTG	-0.228
CCCTCCGA	0.0672
CCAGCTCC	-0.0302
AACCACAC	-0.0933
GGGGATTA	0.302
GGCTTGGA	-0.0842
ACCGATCA	0.291
TCCTTCAA	-0.114
AAGCCAGG	0.00315
AATAGGAA	-0.0992
ATTATTCG	0.00454
TAATTTGA	-0.0922

Sequence	binding signal [E-score]
ATTCTGAC	-0.0305
GGGCTCAA	0.0305
AGATCTCA	0.262
AACTAGAA	-0.0382
CCACAACA	-0.093
CGGATTTC	0.0864
TACACAGA	-0.0145
CTGCTGTA	-0.0753
CTTCGAGC	-0.108
AGAGTTCA	-0.32
ACCTCATG	-0.0541
ATAGTAAC	-0.133
CGACCGAA	-0.113
ACAACGGT	-0.155
CGATTTGC	-0.0936
AAGAGCAA	-0.0626
GCGGACCA	-0.164
ACCCGCGG	0.193
GGGAAAGA	0.052
CACTTCTC	0.0408
GTGATACA	0.444
ACGGAGTC	-0.186

Sequence	binding signal [E-score]
ATGAACAG	-0.146
AACAATCA	-0.0794
CATACATC	0.118
CGGCCTAC	-0.165
GCTTAACA	-0.0268
AGGTAAAT	-0.089
CCCACAGA	0.0121
AAAGTGGA	-0.0711
ACAGAGAC	0.0886
CGACGAAA	-0.157
CCTCGCTC	0.13
CCGTCCTA	-0.124
CGCATCCG	0.146
ACTAACAT	-0.0421
TCCTCGAA	0.0144
CGTCGTAG	-0.158
CAGAGCTG	-0.0954
ATCGTTCC	0.0494
CTCGCAGC	-0.123
CCGTCACA	-0.181
TACGCTCA	0.00225
ATAGTCCA	0.135

Sequence	binding signal [E-score]
ATGAGCAA	-0.000115
ATAGGGCC	-0.017
GGAACCAA	-0.121
CCGTCACC	-0.15
ATCTTGGC	-0.102
ATATCTAG	0.285
ACGGGAAA	-0.148
CGGGACGC	-0.135
GATGACCA	-0.113
CCTTCTGC	-0.0288
ATAGGAAT	0.153
GTGGCGGA	-0.0347
ATTCACGG	-0.0161
AAAGCCCA	-0.0959
AGGCCGCC	-0.311
ACAGTTTG	-0.0866
ACCGACAG	-0.055
CCCACGCA	-0.183
GCGAGAGA	-0.21
CTGTACCC	0.0213
GTGACAAC	-0.0571
AAGCGTAG	-0.214

Sequence	binding signal [E-score]
CGCATTAG	0.02
GACCACCA	-0.147
ACCTGGTG	0.178
TTAACGAA	-0.127
GCGTAGAA	-0.107
CCTACAAC	-0.05
GCCCAGCA	-0.162
GCGGAGAC	-0.0396
ACATGTTG	0.152
ACTGGTCG	-0.104
CAGGTCCG	0.0188
TATTCAGA	0.126
CCGCCCAA	-0.0716
CTGAACCA	-0.0395
CCGCGATA	0.411
GCCAGAGC	-0.218
ATGATAAT	0.168
CAGAATCA	-0.0154
CAAACATC	-0.211
CTATAGCC	-0.0739
ACACTAAA	-0.0284
ATACCTCG	0.342
